Results are given in words; binding and its absence hold for the method and conditions named. Some binding calls cover weakened binding; strength is not graded here.
Molecular target: T1, ectodomain of IL-13Rα2 (ecto-IL-13Rα2), labelled (UniProt Q14627)
T1 sequence (chain, BODPY-TRM-X-succinimidyl ester label): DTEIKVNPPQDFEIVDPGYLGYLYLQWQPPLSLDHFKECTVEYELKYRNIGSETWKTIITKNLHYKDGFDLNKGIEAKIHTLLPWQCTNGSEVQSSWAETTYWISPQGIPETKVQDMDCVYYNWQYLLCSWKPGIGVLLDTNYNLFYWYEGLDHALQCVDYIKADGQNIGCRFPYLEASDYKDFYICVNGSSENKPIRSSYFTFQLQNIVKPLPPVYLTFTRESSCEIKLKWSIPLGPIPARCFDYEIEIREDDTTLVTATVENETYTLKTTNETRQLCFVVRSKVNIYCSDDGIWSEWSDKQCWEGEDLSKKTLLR
Assay: fluorescence polarisation; fluorescence anisotropy; serial dilutions of TMEM219 in 13 nm nanodisc (10 nM-10 μM) added to 10 nM labelled protein or complex; PBS for labelling; empty nanodisc as control; both purified

Amino acid sequences for entries named in this document (tags omitted). Residues count along the entry.
UniProt P36222, residues 22-383: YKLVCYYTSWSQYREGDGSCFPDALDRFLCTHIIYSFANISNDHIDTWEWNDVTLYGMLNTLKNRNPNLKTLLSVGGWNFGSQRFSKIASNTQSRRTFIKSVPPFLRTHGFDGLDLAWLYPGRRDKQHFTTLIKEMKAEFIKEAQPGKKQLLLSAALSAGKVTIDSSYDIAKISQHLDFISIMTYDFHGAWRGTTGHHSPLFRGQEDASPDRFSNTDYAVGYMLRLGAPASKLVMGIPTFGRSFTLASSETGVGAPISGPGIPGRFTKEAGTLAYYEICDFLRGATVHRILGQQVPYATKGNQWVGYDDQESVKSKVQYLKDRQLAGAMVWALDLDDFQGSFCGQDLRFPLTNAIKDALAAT

With “Chi3l1 (chitinase 3-like-1), expressed in insect cells, labelled (from UniProt P36222 22-383) (ligand)” as the substance, how does the binding read?
The binding was “binds”.

Reference: article PMC5027616
